We go through one molecule from US20160208003A1 (AFFITECH RESEARCH, published 2016).

Assay [1] concerns the target T1, human CC chemokine receptor 4 (CCR4) (human, UniProt P51679 1-360).
T1 construct: whole, on cells; Always presented on cells; also called CD194; human CCR4
T1 sequence (looked up): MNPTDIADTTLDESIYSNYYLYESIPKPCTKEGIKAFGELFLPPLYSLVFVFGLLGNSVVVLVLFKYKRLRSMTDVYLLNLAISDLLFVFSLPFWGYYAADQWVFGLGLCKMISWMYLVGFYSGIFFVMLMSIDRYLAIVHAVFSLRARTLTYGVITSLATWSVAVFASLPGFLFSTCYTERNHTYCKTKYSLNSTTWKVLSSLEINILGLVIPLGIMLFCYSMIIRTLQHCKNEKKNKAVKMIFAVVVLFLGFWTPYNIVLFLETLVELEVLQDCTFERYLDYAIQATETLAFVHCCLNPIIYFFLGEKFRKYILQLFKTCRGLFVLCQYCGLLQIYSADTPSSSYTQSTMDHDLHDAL
Briefly: flow cytometry, IgG titration on CCR4+ DT40 cells (2); one site-specific binding fit (Prism). On the procedure: (§1) The IgG forms of antibodies 17G, 9E and KM3060var using various CCR4⁺ cell types were used (see Example 2).
(§2) For the flow cytometry experiments, the cells were harvested from the culture flasks, washed 2 times with PBS, re-suspended in PBS with 0.2% BSA and 0.09% NaN₃ and finally aliquoted 1×10⁵ cells per well into V-shaped 96-well plates (Greiner Bio-One, Frickenhausen, Germany). Cells were centrifuged at 400×g for 5 min and then incubated at 4° C. for 45 min with different antibody dilutions.
(§3) After washing with PBS with 0.2% BSA and 0.09% NaN₃, the cells were stained with 10 μg/ml of RPE-conjugated goat anti-human IgG (AbDSerotec, Düsseldorf, Germany) for 30 minutes at 4° C. The stained cells were washed, re-suspended in 200 μl PBS with 0.2% BSA and 0.09% NaN₃ and transferred to a U-shaped 96-well plate (Corning, Schiphol-Rijk, The Netherlands) for acquisition on EasyCyte flow cytometer (Guava Technologies, Hayward, Calif., USA).
For orientation: A flow cytometer gives signals particle by particle.

The target in assay [2] is T1, human CC chemokine receptor 4 (CCR4). Briefly: cell-based or functional assay.
For assay [3] the target is unchanged. Briefly: flow cytometry, IgG titration on CCR4+ HEK293T cells; one site-specific binding fit (Prism). On the procedure: as §1, §2, §3
Assay [4] has the same target. Nature of the assay: competition flow cytometry on CCR4-transfected DT40 cells: unlabelled IgG against 7 nM biotinylated 9E IgG, streptavidin-RPE. On the procedure:
(§4) To analyze the epitope binding of anti-CCR4 antibodies 17G, 9E and KM3060var, competition experiments were performed using flow cytometry. The binding of biotinylated antibodies to CCR4 transfected DT40-cells was challenged in the presence of different concentrations of non-biotinylated anti-CCR4 antibodies. The CCR4⁺ DT40 cells were harvested from culture flasks, washed 2 times with PBS, re-suspended in PBS with 0.2% BSA and 0.09% NaN₃ and finally aliquoted 1×10⁵ cells per well into V-shaped 96-well plates (Greiner Bio-One, Frickenhausen, Germany). Cells were centrifuged at 400×g for 5 min and then incubated at 4° C. for 3-4 hours with fixed amounts of biotinylated IgG and different concentrations of non-biotinylated antibodies. After washing with PBS with 0.2% BSA and 0.09% NaN₃, the cells were stained with 2.5 μg/ml of Streptavidin—RPE (BD Pharmingen, San Diego, Calif., USA) for 30 minutes at 4° C. The stained cells were washed, re-suspended in 250 μl PBS with 0.2% BSA and 0.09% NaN₃ and transferred to a U-shaped 96-well plate (Corning, Schiphol-Rijk, The Netherlands) for acquisition on EasyCyte flow cytometer (Guava Technologies, Hayward, Calif., USA). The results shown in FIGS. 10 A, B and C illustrate that the 17G and 9E antibodies have epitopes that are identical or at least overlapping.

Assay [5] has the same target. Nature of the assay: competition flow cytometry on CCR4-transfected DT40 cells: unlabelled IgG against 0.28 nM biotinylated 17G IgG, streptavidin-RPE. On the procedure: as §4
The target is the same in assay [6]. Briefly: flow cytometry, IgG titration on CCR4+ DT40 cells; one site-specific binding fit (Prism). On the procedure: as §1, §2, §3
Assay [7] shares this target. Nature of the assay: flow cytometry, IgG titration on CCRF-CEM cells; one site-specific binding fit (Prism). Here is the method: as §1, §2, §3

B1: 17G IgG (full length human IgG1, lambda) (antibody, V domains shown)
VH: [letters of about 100 residues omitted]IRYSAGYWGQGTLVTVSS
VL: SYVLTQPPSASGTPGQRVTISCSGSSSNIGSNYVYWYQQLPGTAPKLLIYRNNQRPSGVPDRFSGSKSGTSASLAISGLRSEDEADYYCAAWDDRLSGWVFGGGTKLTVLG
notes: also called IgG 17G
With B1, the Kd worked out at 0.42 nM in assay [1], 0.62 nM in assay [3], 0.42 nM in assay [6] and 0.16 nM in assay [7]. In addition, in assay [2], the “Ca++ flux in CCRF-CEM cells: signal response to MDC stimulation (% of MDC in the absence of IgGs), IgG 10 µg/mL” value is 42%. Further, the “Ca++ flux in CCRF-CEM cells: signal response to TARC stimulation (% of TARC alone), IgG 10 µg/mL” value in assay [2] was -1%. Also, the “IC50 (read off the curve)” value in assay [4] is approximately 0.3 nM; in assay [5], approximately 0.4 nM.

As usually defined, the Kd is the equilibrium constant for the complex coming apart.
